# Reference: PubChem BioAssay AID1347165 (National Center for Advancing Translational Sciences (NCATS), 2019)
# The campaign covered roughly 220,000 compounds. About 5,700 (2.6%) were called active. Inconclusive results, whose numbers are uncertain, are shown with a selection of clear calls. Calls follow the shape of the dose curve; as a rule, active = well fitted inhibition curve with a large enough effect; inconclusive = small, poorly fitted or top-dose-only effect; inactive = no such curve, though single readings can be large or run the other way. A potency beside an inconclusive call is a rough fit, not a confirmed value.
# Biological target: Lysine-specific demethylase 5B (Homo sapiens) (UniProt Q9UGL1)
# Assay: Primary screen for KDM5B Histone Demethylases FDH-coupled qHTS; also: nearly all actives have a fitted effect of over 70% in size
# Settings: FDH-coupled NADH fluorescence (FDH is formaldehyde dehydrogenase); series mostly up to 57.7 µM
# Procedure, shortened: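 Coupled FDH/NAD⁺ fluorescence readout. KDM5BΔAP 200 nM final; compound titration, 10 min RT preincubation; substrate mix 12.5 µM H3K4me3, 25 µM 2-OG, 50 µM Fe(II), 100 µM ascorbate, 0.25 mM NAD⁺, 0.25 U/mL FDH; ΔRFU over 30 min.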
# Potency is read from the fitted curve at half-maximal effect; tags tell the direction and shape of the fitted curve.
# UniProt Q9UGL1, sequence (Q9UGL1 whole entry, looked up): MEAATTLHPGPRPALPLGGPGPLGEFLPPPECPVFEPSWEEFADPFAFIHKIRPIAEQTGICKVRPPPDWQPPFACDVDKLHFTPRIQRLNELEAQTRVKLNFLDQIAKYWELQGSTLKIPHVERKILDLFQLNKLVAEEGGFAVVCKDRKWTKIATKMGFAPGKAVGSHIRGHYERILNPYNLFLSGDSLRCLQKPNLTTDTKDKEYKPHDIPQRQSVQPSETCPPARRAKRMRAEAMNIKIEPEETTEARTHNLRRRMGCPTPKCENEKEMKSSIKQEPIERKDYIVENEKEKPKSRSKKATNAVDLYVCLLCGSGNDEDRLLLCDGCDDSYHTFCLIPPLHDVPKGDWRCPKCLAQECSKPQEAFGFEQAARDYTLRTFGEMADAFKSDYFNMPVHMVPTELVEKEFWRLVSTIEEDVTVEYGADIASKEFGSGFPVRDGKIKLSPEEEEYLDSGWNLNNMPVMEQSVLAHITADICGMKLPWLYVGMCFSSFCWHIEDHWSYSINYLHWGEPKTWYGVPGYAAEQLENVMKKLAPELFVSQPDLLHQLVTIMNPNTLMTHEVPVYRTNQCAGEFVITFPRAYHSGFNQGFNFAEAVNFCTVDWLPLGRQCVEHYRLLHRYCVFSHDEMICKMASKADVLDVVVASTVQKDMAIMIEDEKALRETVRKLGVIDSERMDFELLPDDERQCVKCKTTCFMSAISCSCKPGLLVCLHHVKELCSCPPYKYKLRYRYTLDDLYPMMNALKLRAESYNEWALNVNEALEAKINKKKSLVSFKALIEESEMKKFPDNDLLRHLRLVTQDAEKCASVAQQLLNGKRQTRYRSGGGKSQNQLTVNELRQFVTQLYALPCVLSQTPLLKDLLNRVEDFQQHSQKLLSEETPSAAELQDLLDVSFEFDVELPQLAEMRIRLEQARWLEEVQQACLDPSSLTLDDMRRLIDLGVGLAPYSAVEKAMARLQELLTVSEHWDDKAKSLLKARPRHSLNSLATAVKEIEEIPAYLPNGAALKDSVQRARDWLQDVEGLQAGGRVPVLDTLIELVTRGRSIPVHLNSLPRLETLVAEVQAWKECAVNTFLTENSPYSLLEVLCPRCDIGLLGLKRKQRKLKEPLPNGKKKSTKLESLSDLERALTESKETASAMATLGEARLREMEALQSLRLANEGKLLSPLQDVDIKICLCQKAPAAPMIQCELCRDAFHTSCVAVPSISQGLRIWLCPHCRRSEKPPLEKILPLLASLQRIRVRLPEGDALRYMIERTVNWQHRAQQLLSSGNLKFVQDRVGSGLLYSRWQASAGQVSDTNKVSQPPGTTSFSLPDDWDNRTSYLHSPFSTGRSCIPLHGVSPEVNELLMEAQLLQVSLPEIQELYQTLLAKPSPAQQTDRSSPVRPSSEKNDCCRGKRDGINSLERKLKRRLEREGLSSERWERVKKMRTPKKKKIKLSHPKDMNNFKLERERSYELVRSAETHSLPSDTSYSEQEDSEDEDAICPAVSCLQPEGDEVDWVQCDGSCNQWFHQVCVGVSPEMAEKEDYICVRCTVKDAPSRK
row,Compound,Potency
1,CCCN1CCc2[nH]cnc2C12CCN(C(=O)c1cnn3ccccc13)CC2,active: 25.1 µM
2,CN1CCN(c2cc(=O)c3ccnc(-c4cccc(F)c4)c3o2)CC1,active: 35.5 µM
3,Cc1ccccc1CN1CCC(n2nccc2NC(=O)c2cccnc2)CC1,inactive
4,O=C(/C=C/c1ccccc1)Nc1cccnc1Oc1ccccc1F,"inconclusive: 22.4 µM [inhibitor, partial curve, poor fit]"
5,CCN(C(=O)c1cnc(N2CCOCC2)c2ccccc12)c1cc(C)ccc1C,"inconclusive: 39.8 µM [inhibitor, single point]"
6,Cc1ccccc1C(=O)Nc1ccc2nc(N3CCN(CCC#N)CC3)cc(C(=O)O)c2c1,"inconclusive: 20 µM [inhibitor, partial curve, poor fit]"
7,O=C(NCCc1ccc(Cl)cc1)c1nc(-c2ccc(Cl)cc2Cl)c2ccccn12,active: 79.4 µM
8,O=C(c1cc(Br)cn2ccnc12)N1CCCC1,active: 35.5 µM
9,CCOc1ccc(OCC)c(NC(=O)c2csc3c2CCCC3)c1,"inconclusive: 35.5 µM [inhibitor, partial curve, poor fit]"
10,CCOC(=O)C1(Cc2ccccc2C(F)(F)F)CCN(C(C)Cc2cccc(C)n2)CC1 (centres undefined),inactive
11,COc1ccc(OC)c2c1cc(C(=O)NCCC(=O)Nc1ccc3c(c1)OCCO3)n2C,"inconclusive: 39.8 µM [inhibitor, single point]"
12,COc1ccc(CNC(=O)c2sc(=S)n(-c3ccccc3)c2N)cc1,"inconclusive: 8.91 µM [inhibitor, full curve, poor fit]"
13,COc1ccc(-n2nc(C)c([C@@H]3C=C[C@@H](NCc4ccccc4)C3)c2C)cc1,"inconclusive: 31.6 µM [inhibitor, partial curve]"
14,O=C(c1ccccc1F)N1CC(Oc2cccc(-c3nc(-c4ccccc4)no3)c2)C1,"inconclusive: 25.1 µM [inhibitor, single point]"
15,CN1CCc2c(sc3ncn4nc(CSc5nc6ccccc6o5)nc4c23)C1,"inconclusive: 25.1 µM [inhibitor, single point]"
16,CC1(C)CN(C(=O)c2cccc(-c3ncc[nH]3)c2)CC1(C)O (centres undefined),inactive
17,CN(C)c1ccc(CN[C@H]2C[C@H]3C(=O)NC[C@@H](CCC(=O)N4CCC(O)CC4)N3C2)cc1,"inconclusive: 39.8 µM [inhibitor, single point]"
18,CN(CCCc1cnn(C)c1)C(=O)C1CNCCO1 (centres undefined),"inconclusive: 15.8 µM [inhibitor, partial curve, poor fit]"
19,COCCNC(=O)[C@@H]1C[C@H](Oc2ccccc2)CN1C(=O)c1cccn1C,inactive
